Here are results for 23 compounds from PubChem BioAssay AID2202238 (Ras Initiative Chemistry Research Team, Frederick National …, 2025).

This test addresses GTPase KRas (Homo sapiens) (UniProt P01116). Nature of the test: Covalent labelling of cysteine mutants by fragments, read by mass spectrometry (AID 2202238). Also on record: protein at 5 µM with 500 µM competing thiol for 1.5 h. The note with it: KRAS G12D cysteine mutants, disulfide tethering, MALDI-TOF labeling, stronger effect = higher value, fragment at 500 µM.
UniProt P01116, sequence (P01116 whole entry, looked up, the tested form may be a part): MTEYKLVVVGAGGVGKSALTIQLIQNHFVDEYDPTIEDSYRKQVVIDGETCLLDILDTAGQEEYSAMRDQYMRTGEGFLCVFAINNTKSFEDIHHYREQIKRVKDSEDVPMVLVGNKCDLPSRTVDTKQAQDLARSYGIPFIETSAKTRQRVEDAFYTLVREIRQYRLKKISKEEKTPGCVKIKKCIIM
Where [1] appears, read: measured here: G75C mutant labeling.
Setting [2] is: measured here: H94C mutant labeling.
Setting [3] is: measured here: I36C mutant labeling.
Where [4] appears, read: measured here: L120C mutant labeling.
Where [5] appears, read: measured here: M67C mutant labeling.
The mark [6] stands for this setting: measured here: M72C mutant labeling.
Where [7] appears, read: measured here: N86C mutant labeling.
[8] abbreviates: measured here: P121C mutant labeling.
[9] abbreviates: measured here: S122C mutant labeling.
Setting [10] is: measured here: S136C mutant labeling.
The mark [11] stands for this setting: measured here: G60C mutant labeling.
[12] abbreviates: measured here: N26C mutant labeling.

Each structure is given as a SMILES string. This is one part of the list. These are further read-outs of the screen, such as a control signal, another cell line or another target. No call is given for them.

Take `CC(NC(=O)CCS)C1(n2ccnn2)CC1` (stereo unspecified): the percent labeling is, setting by setting: under setting [1], 0%; under setting [2], 31.2%; under setting [3], 35.7%; under setting [4], 26.8%; under setting [5], 30.7%; under setting [6], 11.4%. Further, the percent labeling is, setting by setting: under setting [7], 29.2%; under setting [8], 36.2%; under setting [9], 35%; under setting [10], 40.9%.
`O=C(CCS)N1CC2CCCS(=O)(=O)C2(C(F)(F)F)C1` (stereo unspecified): the percent labeling runs as follows: under setting [1], 8.1%; under setting [2], 38.7%; under setting [3], 28.2%; under setting [4], 30.5%; under setting [5], 37.1%; under setting [6], 17.2%. Also, the percent labeling under setting [7] was 18.3%, the percent labeling under setting [8] was 30.6%, the percent labeling under setting [9] stood at 31.4% and the percent labeling under setting [10] was 41.6%.
`Cc1nc(-c2cc(C(=O)NCCS)cs2)cs1` registered a percent labeling under setting [11] of 31%; a percent labeling under setting [1] of 17.3%; a percent labeling under setting [2] of 21.2%; a percent labeling under setting [3] of 18.3%; a percent labeling under setting [4] of 24.6%; a percent labeling under setting [5] of 16.6%. Also, the percent labeling by setting is: under setting [6], 55.4%; under setting [12], 46%; under setting [7], 18.3%; under setting [8], 17.2%; under setting [9], 16.2%; under setting [10], 27.3%.
Take `O=C(NCCS)c1ccc(-c2ccc3c(c2)OCCO3)s1`: the percent labeling under setting [11] was found to be 32.5%; the percent labeling under setting [1] was found to be 28.4%; the percent labeling under setting [2] was found to be 15.6%; the percent labeling under setting [3] came out at 11.3%; the percent labeling under setting [4] came out at 19%; the percent labeling under setting [5] was 10.4%. The compound further had a percent labeling under setting [6] of 79.6%; a percent labeling under setting [12] of 28.6%; a percent labeling under setting [7] of 17%; a percent labeling under setting [8] of 9.7%; a percent labeling under setting [9] of 2.6%; a percent labeling under setting [10] of 17.3%.
Turning to `O=C(NCCS)c1cc(-c2cccc(C(F)(F)F)c2)ccn1`, the percent labeling was 13.9% under setting [11]; 10.8% under setting [1]; 10.7% under setting [2]; 8.4% under setting [3]; 9.1% under setting [4]; 8% under setting [5]. Besides, the percent labeling by setting is: under setting [6], 40.8%; under setting [12], 19.2%; under setting [7], 10.9%; under setting [8], 9.1%; under setting [9], 5.6%; under setting [10], 10.1%.
Turning to `O=C(NCCS)c1cnc(Oc2ccccc2)cn1`, the percent labeling was 14% under setting [11]; 8.2% under setting [1]; 12.1% under setting [2]; 11.2% under setting [3]; 14.9% under setting [4]; 28.7% under setting [5]. Also, the percent labeling runs as follows: under setting [6], 21.2%; under setting [12], 24.4%; under setting [7], 8.1%; under setting [8], 11.7%; under setting [9], 11.1%; under setting [10], 18.8%.
In the case of `CC(C)N(Cc1cccs1)C(=O)CCS`, the percent labeling came to 23.3% under setting [1]; 50.6% under setting [2]; 37% under setting [3]; 29.4% under setting [4]; 37.9% under setting [5]; 50.6% under setting [6]. This compound also registered a percent labeling under setting [7] of 35.7%, a percent labeling under setting [8] of 34.8%, a percent labeling under setting [9] of 32.6% and a percent labeling under setting [10] of 61.9%.
Turning to `O=C(NCCS)c1sc(-c2ccccc2)nc1C(F)F`, the percent labeling under setting [11] turned out to be 19.9%; the percent labeling under setting [1] came out at 13.6%; the percent labeling under setting [2] is 14.8%; the percent labeling under setting [3] turned out to be 10.7%; the percent labeling under setting [4] came out at 11.9%; the percent labeling under setting [5] was 11.6%. Moreover, the percent labeling worked out at 38.8% under setting [6]; 23.2% under setting [12]; 12.4% under setting [7]; 17.6% under setting [8]; 7.6% under setting [9]; 14.2% under setting [10].
As for `Cc1oc(-c2ccccc2)nc1CC(=O)NCCS`, the percent labeling by setting is: under setting [11], 45.1%; under setting [1], 19.1%; under setting [2], 28.9%; under setting [3], 26.3%; under setting [4], 57.6%; under setting [5], 37.1%. Besides, the percent labeling by setting is: under setting [6], 43.5%; under setting [12], 36.5%; under setting [7], 16.8%; under setting [8], 29.3%; under setting [9], 22.7%; under setting [10], 38.6%.
As for `O=C(CN1CC(C(F)(F)F)CCC1=O)NCCS` (stereo unspecified), the percent labeling was found to be 27% under setting [11]; 11.2% under setting [1]; 30.8% under setting [2]; 22.6% under setting [3]; 48.9% under setting [4]; 29.3% under setting [5]. Besides, the percent labeling is, setting by setting: under setting [6], 18.6%; under setting [12], 31.7%; under setting [7], 25.6%; under setting [8], 34.5%; under setting [9], 35.2%; under setting [10], 37.7%.
Regarding `CC1(C2CC2)NC(=O)N(c2cccc(NC(=O)CCS)c2)C1=O` (stereo unspecified), the percent labeling reads like this: under setting [1], 13.9%; under setting [2], 31.8%; under setting [3], 26%; under setting [4], 31.5%; under setting [5], 26.5%; under setting [6], 39.2%. Besides, the percent labeling under setting [7] was 19.2%, the percent labeling under setting [8] was found to be 24.2%, the percent labeling under setting [9] turned out to be 27.9% and the percent labeling under setting [10] was 48.8%.
Turning to `CN(C)C(=O)CCn1ccc(NC(=O)CCS)n1`, the percent labeling reads like this: under setting [1], 9.3%; under setting [2], 28%; under setting [3], 36.8%; under setting [4], 29.1%; under setting [5], 34.7%; under setting [6], 16%. Besides, the percent labeling runs as follows: under setting [7], 34.7%; under setting [8], 29.8%; under setting [9], 28.4%; under setting [10], 50.3%.
`Cc1nc(C(=O)NCCS)c(C)o1`: the percent labeling reads like this: under setting [11], 44.7%; under setting [1], 25.9%; under setting [2], 31.9%; under setting [3], 29.5%; under setting [4], 34.9%; under setting [5], 28.1%. The compound also gave a percent labeling under setting [6] of 27.6%; a percent labeling under setting [12] of 39.6%; a percent labeling under setting [7] of 31.3%; a percent labeling under setting [8] of 35.4%; a percent labeling under setting [9] of 39.1%; a percent labeling under setting [10] of 35.9%.
As for `CN(C)Cc1nc(C2(NC(=O)CCS)CCCC2)no1`, the percent labeling is, setting by setting: under setting [1], 6.4%; under setting [2], 34%; under setting [3], 26.9%; under setting [4], 29.1%; under setting [5], 32.8%; under setting [6], 9.9%. Also, the percent labeling under setting [7] amounted to 14%, the percent labeling under setting [8] turned out to be 28.8%, the percent labeling under setting [9] came out at 27.2% and the percent labeling under setting [10] amounted to 46.1%.
`O=C(NCCS)c1cccc(CN2C(=O)CNC2=O)c1` showed a percent labeling under setting [11] of 37%; a percent labeling under setting [1] of 19.3%; a percent labeling under setting [2] of 37.5%; a percent labeling under setting [3] of 27.1%; a percent labeling under setting [4] of 41.3%; a percent labeling under setting [5] of 36%. In addition, the percent labeling was found to be 29% under setting [6]; 42.8% under setting [12]; 38.5% under setting [7]; 29.8% under setting [8]; 34.6% under setting [9]; 43.6% under setting [10].
Regarding `COC(=O)[C@@H]1C[C@H](N2C(=O)CNC2=O)CN1C(=O)CCS`, the percent labeling under setting [1] is 6.1%; the percent labeling under setting [2] came out at 24.8%; the percent labeling under setting [3] stood at 34%; the percent labeling under setting [4] was found to be 33%; the percent labeling under setting [5] was 31.8%; the percent labeling under setting [6] amounted to 12.1%. Further, the percent labeling under setting [7] came to 18.8%, the percent labeling under setting [8] turned out to be 27.1%, the percent labeling under setting [9] turned out to be 35.5% and the percent labeling under setting [10] amounted to 39.1%.
For the compound `O=C(CCS)N1CCCN2c3ccccc3CC2C1` (stereo unspecified), the percent labeling stood at 3.8% under setting [1]; 8.6% under setting [2]; 12.9% under setting [3]; 12% under setting [4]; 20.6% under setting [5]; 14.8% under setting [6]. The percent labeling under setting [7] came to 0%, the percent labeling under setting [8] stood at 13.5%, the percent labeling under setting [9] stood at 12.5% and the percent labeling under setting [10] amounted to 24.2%.
Turning to `COc1ccc(C(=O)NCCS)cc1-c1ccnn1C`, the percent labeling by setting is: under setting [11], 39.7%; under setting [1], 24.3%; under setting [2], 32.7%; under setting [3], 28.9%; under setting [4], 43.5%; under setting [5], 33%. Further, the percent labeling reads like this: under setting [6], 53.7%; under setting [12], 47.6%; under setting [7], 20.4%; under setting [8], 23.5%; under setting [9], 25.6%; under setting [10], 77.5%.
The compound `COc1cnc(C2CCCN2C(=O)CCS)[nH]c1=O` (stereo unspecified) returned a percent labeling under setting [1] of 5.7%; a percent labeling under setting [2] of 23.9%; a percent labeling under setting [3] of 30.1%; a percent labeling under setting [4] of 40.6%; a percent labeling under setting [5] of 29.8%; a percent labeling under setting [6] of 9.3%. In addition, the percent labeling by setting is: under setting [7], 19.5%; under setting [8], 31.2%; under setting [9], 34.4%; under setting [10], 51.2%.
Consider `O=C(CCS)NCc1ccn(-c2cccc(Cl)c2)n1`, for which the percent labeling by setting is: under setting [1], 4.1%; under setting [2], 18.1%; under setting [3], 19.7%; under setting [4], 12.2%; under setting [5], 15.9%; under setting [6], 34.3%. Besides, the percent labeling reads like this: under setting [7], 0%; under setting [8], 11.6%; under setting [9], 11.1%; under setting [10], 20%.
As for `CCc1ccc(C(=O)Nc2sccc2C(=O)NCCS)cc1`, the percent labeling by setting is: under setting [11], 47.4%; under setting [1], 17.9%; under setting [2], 33.1%; under setting [3], 13.3%; under setting [4], 17.1%; under setting [5], 9.8%. In addition, the percent labeling was found to be 46.5% under setting [6]; 25.5% under setting [12]; 9.1% under setting [7]; 12% under setting [8]; 4.3% under setting [9]; 20.8% under setting [10].
With `O=C(NCCS)[C@@H]1CCCO[C@H]1c1ncc[nH]1`, the percent labeling runs as follows: under setting [11], 21.8%; under setting [1], 7.4%; under setting [2], 27.8%; under setting [3], 24.1%; under setting [4], 30.6%; under setting [5], 23.8%. Further, the percent labeling runs as follows: under setting [6], 10.7%; under setting [12], 29.3%; under setting [7], 22.6%; under setting [8], 28.9%; under setting [9], 22.2%; under setting [10], 40.9%.
`O=C(CCC(=O)N1CCN(c2ncccn2)CC1)NCCS`: the percent labeling runs as follows: under setting [11], 24.4%; under setting [1], 11.8%; under setting [2], 26.6%; under setting [3], 20.8%; under setting [4], 39.7%; under setting [5], 24.9%. This compound also showed a percent labeling under setting [6] of 19%; a percent labeling under setting [12] of 32%; a percent labeling under setting [7] of 20.9%; a percent labeling under setting [8] of 27.1%; a percent labeling under setting [9] of 23.4%; a percent labeling under setting [10] of 39%.
